Among all 46,000 compounds or so, about 60 (0.1%) were called active. About 3% were inconclusive and are not listed. Calls follow the shape of the dose curve; as a rule, active = well fitted inhibition curve with a large enough effect; inconclusive = small, poorly fitted or top-dose-only effect; inactive = no such curve, though single readings can be large or run the other way. The list shows a part of the results.
Test: Primary qHTS assay for Inhibitors of ovarian cancer metastasis using an organotypic tumor microenvironment (TME) model. Also: nearly all actives have a fitted effect of over 65% in size.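 As to activity change, negative = inhibition: plate controls were DMSO wells for no effect and tomatine positive control wells for full effect.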
Conditions: SKOV3ip1-GFP adhesion/invasion on 3D omental model, fluorescence; series mostly up to 45.8 µM; activity change, negative = inhibition: at the top concentration
In short: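 Adhesion/invasion was scored as fixed GFP-labeled SKOV3ip1 cell counts (488/509 nm), normalized to DMSO and tomatine controls. Cancer cells in serum-free medium, with four compound doses (0.36-46 umol/L), sat 2 hr at RT then 16 hr at 37 C on a 48 hr fibroblast/mesothelial/ECM culture.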

Activity change, negative = inhibition, inactive:
Cc1ccc(NC(=O)c2ccc(CN3CCN(C)CC3)cc2)cc1Nc1nc(-c2cccnc2)cs1 4.21%, CCCCNC(=O)C1CCCN(S(=O)(=O)CCC)C1 (stereo not given) -28.9%, CCc1nn(CC(=O)NC2CC2)c(=O)c2cc3c(OC)cccc3n12 6.99%, COc1ccc(-n2ncc3c(NCCCOC(C)C)ncnc32)cc1 -21.2%, CCc1nn2c(=O)cc(COC(=O)c3cccc(NC(=O)CCc4ccccc4)c3)nc2s1 -20.6%, COc1ccc(-n2c(C)nc3c(cnn3-c3ccc(F)cc3)c2=O)cc1 -13.7%, CCc1ccc(C(=O)c2cn(CC(=O)Nc3ccc4c(c3)OCCO4)c3ccc(F)cc3c2=O)cc1 -5.85%, CCCCc1ccc(-n2nc3cc(C)c(NC(=O)c4ccc(C#N)cc4F)cc3n2)cc1 3.17%, COc1cc2c(=O)n(CCC(=O)NCC3CCCO3)c(=O)n(CC(=O)Nc3ccccc3C)c2cc1OC (stereo not given) -0.925%, CCn1cc(/C=C(\NC(=O)c2ccc(OC)cc2)C(=O)NCCCn2ccnc2)c2ccccc21 22.3%, COc1ccccc1C(=O)Oc1ccc(C(c2c(C)[nH][nH]c2=O)c2c(C)[nH][nH]c2=O)cc1 6.07%, Cc1nc(-c2ccc(F)cc2)sc1CCNC(=O)C(=O)Nc1ccc2c(c1)OCCO2 -3.29%, COC(=O)c1cc(-c2ccc(C)cc2)c2c(=O)n(C)c(=O)n(C)c2n1 -8.86%, COc1ccc(-c2cc(C(=O)Nc3c(C)n(C)n(-c4ccccc4)c3=O)no2)cc1OC 1.98%, CSc1nn(Cc2ccc(C)cc2)c(N)c1S(=O)(=O)c1ccccc1 -13.4%, Cc1ccc(S(=O)(=O)NC(=O)NN2CC3CCCC3C2)cc1 (stereo not given) 17.2%, O=C(CCCn1c(=O)c2cccn2c2ccccc21)NCCc1ccc(Cl)cc1 -16.3%, COc1ccc(CC(=O)Nc2ccc(-c3nc4ccccc4s3)c(C)c2)cc1OC 28.1%, COc1cccc(CNC(=O)c2cc(S(=O)(=O)N3CCCCC3)c[nH]2)c1 -14.1%, O=C(NCc1ccccc1Cl)c1ccc2oc(=O)n(Cc3ccccc3)c2c1 107%, Cc1cc(C)n(-c2nc3ccccc3nc2N2CCN(c3cccc(C(F)(F)F)c3)CC2)n1 -9.98%, CCOC(=O)c1c(NC(=O)C2c3ccccc3Oc3ccccc32)sc(C)c1C 10.1%, Cc1c(CC(=O)NCc2ccc(F)cc2)c(=O)oc2cc(O)c(Cl)cc12 5.38%, Cc1ccc(-n2c(SCc3ccccc3)nc3c([nH]c4ccccc43)c2=O)cc1 2.75%, Cc1ccc(NC(=O)c2ccccc2Br)c(C(=O)c2ccccc2)c1 -8.25%, CCC1(C)Cc2c(sc3nc(SC)n(-c4ccc(C)cc4)c(=O)c23)CO1 (stereo not given) 3.19%, Cc1nnc(NC(=O)c2ccccc2)s1 0.503%, COc1ccc(CNC(=O)c2ccc3nc(-c4ccc(F)cc4)c(-c4ccc(F)cc4)nc3c2)cc1 -1.27%, COc1ccc(Cn2c(SCc3ccc(C(=O)NC(C)c4ccccc4)cc3)nc3cccnc32)cc1 (stereo not given) 20.1%, Cc1cccc(N2CCN(C(=O)CS(=O)(=O)Cc3nc(-c4ccccc4C)oc3C)CC2C)c1 (stereo not given) -13.1%, COc1ccc(OC)c(NC(=O)Cn2c(=O)cc(-c3ccccc3)c3c(C)nn(C)c32)c1 4.77%, CCOC(=O)CNC(=O)N1CCN(c2nnc(C)c3c(C)n(-c4ccc(Cl)cc4)nc23)CC1 -0.391%, COc1cc(NC(=O)CCCOc2cc(=O)n(C)c3ccccc23)cc(OC)c1OC 9.53%, O=C(Nc1ccc(Cl)cc1)C(NS(=O)(=O)c1cccs1)c1ccccc1 (stereo not given) -2.51%, CC(C)(O)CC[C@@H](O)[C@](C)(O)[C@H]1CC[C@@]2(O)C3=CC(=O)[C@@H]4C[C@@H](O)[C@@H](O)C[C@]4(C)[C@@H]3CC[C@]12C 7.08%, Cc1cc(C)c2c(=O)cc(CSc3n[nH]c(C)n3)[nH]c2c1 -0.434%, CCc1ccccc1NC(=O)c1noc2c1CC(C(C)(C)C)CC2 (stereo not given) 19%, Cc1cccc(NC(=O)C(=O)NCCc2csc(-c3ccc(F)cc3)n2)c1C 4.25%, O=c1c(O)c(-c2cc(O)c(O)c(O)c2)oc2cc(O)cc(O)c12 3.52%, CCOC(=O)c1ccc(NC(=O)C2=C(C)Nc3nc(CCCO)nn3C2c2ccc(OC)cc2)cc1 (stereo not given) 21.8%, Cc1cccc(N2CCN(C(=O)c3ccc(Nc4nc5ccccc5n5nnnc45)cc3)CC2)c1C -3.55%, CC1=C(C(=O)Nc2cc(Cl)ccc2C)C(c2cccs2)n2ncnc2N1 (stereo not given) -12.1%, COc1ccc(NC(=O)CN2C(=O)c3cccnc3Sc3ccccc32)cc1OC -4.84%, Cc1cc(N2CCCCC2)nc2ccc(NC(=O)CCC(=O)N3CCN(c4ccccc4)CC3)cc12 -14.3%, CCSc1nc(-c2ccccc2F)nc2c1Cc1c(CO)cnc(C)c1O2 6.14%, COc1ccc(CCNC(=O)C(C)n2c(=O)cc(-c3ccccc3)c3c(C)nn(C)c32)cc1OC (stereo not given) 4.61%, CCC(=O)N1CCc2cc(CNC(=O)c3ccc(F)cc3)ccc21 14.6%, COc1cccc(N2CCN(C(=O)c3nn(C)c4c3CSc3ccc(C)cc3-4)CC2)c1 0.252%, CC1CCN(c2nc3ccc(C(=O)N4CCN(c5ccccc5)CC4)cc3s2)CC1 -5.74%, CCOc1ccc(N(CC)C(=O)c2cc3c(s2)-c2ccccc2OC3)cc1 -2.6%, COC(=O)c1cc2sc(Cl)cc2n1CC(=O)Nc1cc(C)cc(C)c1 12.6%, CCN(CC)CCOc1ccc(Cc2ccccc2)cc1 -5.88%, O=C(NCc1ccccc1F)c1ccc(CSc2nc3cccnc3n2Cc2ccccc2)cc1 -10.6%, Cc1nn2c(=O)cc(COC(=O)c3ccccc3NC(=O)COc3ccccc3C)nc2s1 2.81%, Cc1ccccc1NC(=O)Cn1c(=O)n(Cc2ccccc2)c(=O)c2c(C)c(C)sc21 0.796%, N#CC1=C2SCN(C3CCCCC3)CN2C(=O)CC1c1ccc(Cl)cc1 (stereo not given) 1.93%, N#Cc1nc(-c2ccc(COc3ccccc3)o2)oc1N1CCCCC1 -4.5%, Cc1ccc(CNC(=O)C(=O)NCC(c2ccco2)S(=O)(=O)c2ccccc2)cc1 (stereo not given) 13.1%, COC(=O)c1c(N)n(-c2ccc(OC)c(OC)c2)c2nc3ccccc3nc12 -11.5%, COC(=O)c1cc2occc2n1CC(=O)Nc1ccc(N(C)C)cc1 -10.9%, CCCCN1CC(c2nc3ccccc3n2CCCCOc2cccc(C)c2C)CC1=O (stereo not given) -8.52%, CCOc1ccc(NC(=O)CC2C(=O)N(c3cccc(C)c3)C(=O)N2Cc2cccs2)cc1 (stereo not given) -2.15%, CCCN1CCN(CCCNC(=O)c2ccc3nc(Cc4ccccc4)oc3c2)CC1 -10.8%

outcome, inactive:
CCOc1ccccc1C1CC(=O)Nc2c1c(=O)n(C)c1ncnn21 (stereo not given), CCCCN(CC)CCCNC(=O)c1c(C)oc2ncnc(N3CCOCC3)c12, Cc1ccc(NCc2cccn2-c2nnc(N3CCC(C(=O)NCCc4ccc(Cl)cc4)CC3)s2)cc1, CCc1nn(CC(=O)NCCc2ccc(OC)cc2OC)c(=O)c2cc3occc3n12, COc1ccccc1CNC(=O)C1CCN(c2nc3ccc(Cl)cc3[nH]2)CC1, Cc1csc2nc(COC(=O)c3ccccc3NC(=O)c3ccc(C(C)(C)C)cc3)cc(=O)n12, COc1ccc(-c2cc(C(F)(F)F)nc(NCCc3ccccc3)n2)cc1OC, COc1ccc2oc(=O)c(C(=O)N3CCN(c4ccc(C)cc4)CC3)cc2c1, CCOc1cccc2sc(N(Cc3cccnc3)C(=O)c3ccc(C#N)cc3)nc12, Cc1cc(NC(=O)CCNS(=O)(=O)c2cccc3nsnc23)ccc1Br, O=C(Nc1ccc(-c2nc3cc(Cl)ccc3o2)cc1)c1cc2ccccc2o1, CC1CCN(c2nc3ccc(C(=O)NCc4ccccc4)cc3s2)CC1, CC(=O)c1c(C)oc2c1cc(NS(=O)(=O)c1ccc(Cl)c(C)c1)c1ccccc12, O=S(=O)(NCc1nc2cccnc2n1Cc1ccccc1Cl)c1ccc(F)c(Cl)c1, CCc1ccc(S(=O)(=O)c2nnn3c2nc(Nc2ccc(NC(C)=O)cc2)c2sccc23)cc1, Cc1ccc(-n2c(Cc3ccccc3)nnc2SCc2nc(-c3cccs3)no2)cc1C, CCOC(=O)C1CCCN(Cc2cn3c(-c4cccc(Br)c4)nnc3s2)C1 (stereo not given), Cc1nc(-c2ccc(C)c(N3CCN(C(=O)Nc4cccc(Cl)c4C)CC3)c2)no1, Cc1cccc(OCC(=O)Nc2nnc(S(=O)(=O)N3CCc4ccccc43)s2)c1, COc1ccc(CCC(=O)NC2CC(=O)N(c3ccc(OC)cc3)C2)cc1 (stereo not given), CCN(C(=O)c1cn(CC)c(=O)c2cc(OC)c(OC)cc12)c1ccccc1F, CCC(C(=O)Nc1cc(F)ccc1F)n1nc(C)c2c(C)n(-c3ccc(C)cc3)nc2c1=O (stereo not given), CCN1CCN(C(=O)N[C@H](C(=O)N[C@@H]2C(=O)N3C(C(=O)O)=C(CSc4nnnn4C)CS[C@@H]23)c2ccc(O)cc2)C(=O)C1=O inactive [at 15.1 µM], O=C(CSCc1ccc(F)cc1)N1CCc2c([nH]c3ccccc23)C1c1ccc(Cl)cc1 (stereo not given), COc1cc(C(=O)Nc2ccccc2-c2nc(-c3ccc(C)cc3)no2)cc(OC)c1OC, COc1cc(C2C(=O)N(C3CCCCC3)CC(=O)N2C2CCCCC2)ccc1OC(C)C (stereo not given), Cc1ccc(-c2nc3sccn3c2Nc2ccc(C)c(C)c2)cc1, COc1ccc(OC)c(CNc2nc3ccc(C)cc3n3nnnc23)c1, CCOC(=O)c1cc(OC(=O)c2ccccc2Cl)n(-c2ccccc2)n1, COc1ccc(OC)c(NC(=O)[C@H](CSCc2ccccc2)N2Cc3ccccc3C2=O)c1, Cc1ccc(CNC(=O)Cn2c(=O)n(-c3ccc(C)cc3)c(=O)c3c2c2cc(C)ccc2n3C)cc1, CCOc1ccc(CN(CCc2ccc3c(c2)OCO3)Cc2cc(OC)c(OC)cc2OC)cc1
